Test results taken from the supplement of paper PMC10126150.
Sequences with one replicate were seen in a single cluster, so their values are uncertain.

Tested on: ATP
Assay: switch fluorescence ratio, 500 uM ATP over buffer (Cy3 cluster intensity, sum of 5 cycles each) (fold (ratio)); higher = stronger signal-on switching upon ATP binding; sequences stand for … in TCGTCGGCAGCGTCAGATGTGTATAAGAGACAGTTTTTTTTTTTTTTTTTTTTTTTTT…TC
Conditions: aptamer strand: ATP DNA aptamer (quencher-CACCTGGGGGAGTATTGCGGAGGAAGG + anchor), 100 nM annealed; ATP concentration: 500 uM; one replicate
In short: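 Imaging in selection buffer was followed by imaging after 15 min with 500 uM ATP at 22 °C, for Cy3-labelled switching-strand clusters annealed to 100 nM quencher-labelled ATP aptamer on a modified Illumina MiSeq flow-cell. Five of these buffer/ATP cycles ran, separated by NaOH stripping and re-annealing. The fluorescence ratio per cluster is summed target-cycle over summed buffer-cycle Cy3 intensity, averaged per switch-domain sequence; clusters outside 100-1000 RFU were removed.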
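Also: ATP exposure 15 min at 22 °C before imaging.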

Q: Which switch fluorescence ratio does the source give for GGGGAGGTTA here?
A: 1

Q: How did the switch fluorescence ratio turn out when GGGGATTCTC was run?
A: 0.962

Q: How did the switch fluorescence ratio turn out when GGGGCAATTG was run?
A: 0.97

Q: For GGGGCATCTG, which switch fluorescence ratio is on record?
A: 1.03

Q: For GGGGCCAAAG, which switch fluorescence ratio is on record?
A: 0.99

Q: With GGGGCCAGGT as the sequence, how does the switch fluorescence ratio read?
A: 1.16

Q: How did the switch fluorescence ratio turn out when GGGGCCTCGA was run?
A: 0.96

Q: How did the switch fluorescence ratio turn out when GGGGCGACAC was run?
A: 0.962

Q: For GGGGCGCTCG, which switch fluorescence ratio is on record?
A: 1.04

Q: How did the switch fluorescence ratio turn out when GGGGCGTGAA was run?
A: 0.978

Q: GGGGCTCAAG was tested. Which switch fluorescence ratio did it give?
A: 1.01

Q: How did the switch fluorescence ratio turn out when GGGGCTGCG was run?
A: 1

Q: Which switch fluorescence ratio does the source give for GGGGCTGTCG here?
A: 1.02

Q: GGGGCTTCGG was tested. Which switch fluorescence ratio did it give?
A: 1.01

Q: For GGGGGAAGT, which switch fluorescence ratio is on record?
A: 0.997

Q: Which switch fluorescence ratio does the source give for GGGGGAATTC here?
A: 1.01

Q: For GGGGGACCT, which switch fluorescence ratio is on record?
A: 1.11

Q: How did the switch fluorescence ratio turn out when GGGGGCCAAC was run?
A: 0.99

Q: Which switch fluorescence ratio does the source give for GGGGGGAAA here?
A: 1.03

Q: For GGGGGGACC, which switch fluorescence ratio is on record?
A: 0.985

Q: Which switch fluorescence ratio does the source give for GGGGGTATTC here?
A: 1.06

Q: How did the switch fluorescence ratio turn out when GGGGGTTGTC was run?
A: 1.14

Q: How did the switch fluorescence ratio turn out when GGGGTAACAC was run?
A: 0.97

Q: With GGGGTAACTA as the sequence, how does the switch fluorescence ratio read?
A: 1.04

Q: GGGGTACCCC was tested. Which switch fluorescence ratio did it give?
A: 1.01

Q: With GGGGTGGCAT as the sequence, how does the switch fluorescence ratio read?
A: 0.978

Q: For GGGGTGTCCG, which switch fluorescence ratio is on record?
A: 1.02

Q: Which switch fluorescence ratio does the source give for GGGGTGTTC here?
A: 1.03

Q: GGGGTTAATC was tested. Which switch fluorescence ratio did it give?
A: 0.986

Q: How did the switch fluorescence ratio turn out when GGGGTTACTT was run?
A: 1.03

Q: GGGGTTCTTG was tested. Which switch fluorescence ratio did it give?
A: 1.01

Q: GGGGTTTCGA was tested. Which switch fluorescence ratio did it give?
A: 0.998

Q: For GGGGTTTGAC, which switch fluorescence ratio is on record?
A: 1

Q: GGGTAAAAGA was tested. Which switch fluorescence ratio did it give?
A: 1.05

Q: GGGTAAAATA was tested. Which switch fluorescence ratio did it give?
A: 0.991

Q: For GGGTAACACT, which switch fluorescence ratio is on record?
A: 1.01

Q: How did the switch fluorescence ratio turn out when GGGTAAGGTA was run?
A: 0.998

Q: For GGGTAATGTC, which switch fluorescence ratio is on record?
A: 0.956

Q: GGGTACACGC was tested. Which switch fluorescence ratio did it give?
A: 0.984

Q: How did the switch fluorescence ratio turn out when GGGTACTGTT was run?
A: 1

Q: With GGGTAGTCGA as the sequence, how does the switch fluorescence ratio read?
A: 1.05

Q: Which switch fluorescence ratio does the source give for GGGTATCATG here?
A: 0.957

Q: With GGGTATCCCG as the sequence, how does the switch fluorescence ratio read?
A: 0.977

Q: How did the switch fluorescence ratio turn out when GGGTCAAACC was run?
A: 1.05

Q: Which switch fluorescence ratio does the source give for GGGTCAAGAT here?
A: 0.98

Q: With GGGTCAAGTT as the sequence, how does the switch fluorescence ratio read?
A: 0.984

Q: With GGGTCACTAA as the sequence, how does the switch fluorescence ratio read?
A: 1.01

Q: GGGTCAGCGA was tested. Which switch fluorescence ratio did it give?
A: 1.04

Q: How did the switch fluorescence ratio turn out when GGGTCAGGAG was run?
A: 0.971

Q: For GGGTCCTCTT, which switch fluorescence ratio is on record?
A: 0.951

Q: For GGGTCCTTG, which switch fluorescence ratio is on record?
A: 0.995

Q: How did the switch fluorescence ratio turn out when GGGTCGAGGA was run?
A: 0.988

Q: With GGGTCGCCA as the sequence, how does the switch fluorescence ratio read?
A: 0.984

Q: GGGTCGGCTT was tested. Which switch fluorescence ratio did it give?
A: 0.953

Q: Which switch fluorescence ratio does the source give for GGGTCGTAGA here?
A: 1.03

Q: For GGGTCTAAAG, which switch fluorescence ratio is on record?
A: 1.05

Q: How did the switch fluorescence ratio turn out when GGGTCTCAAG was run?
A: 1.14

Q: How did the switch fluorescence ratio turn out when GGGTGAGCCG was run?
A: 1.05

Q: For GGGTGAGTTG, which switch fluorescence ratio is on record?
A: 0.962

Q: For GGGTGATTTA, which switch fluorescence ratio is on record?
A: 0.973

Q: With GGGTGCAGGA as the sequence, how does the switch fluorescence ratio read?
A: 0.898

Q: How did the switch fluorescence ratio turn out when GGGTGCCACA was run?
A: 0.978

Q: Which switch fluorescence ratio does the source give for GGGTGCGCCG here?
A: 0.968

Q: For GGGTGCTTTC, which switch fluorescence ratio is on record?
A: 0.927

Q: For GGGTTAAGA, which switch fluorescence ratio is on record?
A: 0.978

Q: GGGTTACATT was tested. Which switch fluorescence ratio did it give?
A: 1.02

Q: Which switch fluorescence ratio does the source give for GGGTTACGTG here?
A: 0.98

Q: For GGGTTAGCGT, which switch fluorescence ratio is on record?
A: 1.02

Q: GGGTTAGTCG was tested. Which switch fluorescence ratio did it give?
A: 1.2

Q: With GGGTTATCC as the sequence, how does the switch fluorescence ratio read?
A: 0.975

Q: Which switch fluorescence ratio does the source give for GGGTTATTTA here?
A: 1.04

Q: With GGGTTCTTTC as the sequence, how does the switch fluorescence ratio read?
A: 1.01

Q: GGGTTGAAAT was tested. Which switch fluorescence ratio did it give?
A: 1.06

Q: GGGTTGGATC was tested. Which switch fluorescence ratio did it give?
A: 0.977

Q: With GGGTTGTATC as the sequence, how does the switch fluorescence ratio read?
A: 0.98

Q: With GGGTTGTCAC as the sequence, how does the switch fluorescence ratio read?
A: 0.954

Q: For GGGTTGTTCC, which switch fluorescence ratio is on record?
A: 1.03

Q: How did the switch fluorescence ratio turn out when GGGTTTACGT was run?
A: 1.01

Q: With GGTAAAATTC as the sequence, how does the switch fluorescence ratio read?
A: 1

Q: How did the switch fluorescence ratio turn out when GGTAAACCTT was run?
A: 1.07

Q: Which switch fluorescence ratio does the source give for GGTAAACGGG here?
A: 0.974

Q: For GGTAACTTAT, which switch fluorescence ratio is on record?
A: 0.985

Q: GGTAAGATAT was tested. Which switch fluorescence ratio did it give?
A: 1.03

Q: With GGTAAGCCT as the sequence, how does the switch fluorescence ratio read?
A: 1.06

Q: GGTAATATAA was tested. Which switch fluorescence ratio did it give?
A: 1
